The antibiotic and cytotoxicity screens of Wong et al. (2023)
This is one part of the list.

Each compound was assayed on S. aureus RN4220 (assay: growth inhibition call (relative growth <= 0.2)). Conditions: 50 µM.

Growth inhibition call, inactive:
O=C1CCC(=O)N1CN1CCOCC1, C[C@@H]1CN([C@H](C)CO)C(=O)c2cc(NC(=O)Nc3ccc4c(c3)OCO4)ccc2O[C@@H](C)CCCCO[C@@H]1CN(C)C(=O)CCC(F)(F)F, CN(C)C(=O)c1ccc(-c2cccc(-c3nc(C(=O)NC4CCCCC4)cc4c3[C@@H](CCO)N([S@](=O)C(C)(C)C)C4)c2)cc1, Cc1noc(C)c1NC(=O)Nc1cccc2c1O[C@H](CN(C)C(=O)NC(C)C)[C@@H](C)CN([C@@H](C)CO)C2=O, O=C(C[C@@H]1C=C[C@@H](NC(=O)Cc2ccccn2)[C@@H](CO)O1)NCCCN1CCOCC1, C[C@@H]1CN([C@@H](C)CO)C(=O)Cc2cc(NS(=O)(=O)c3cccs3)ccc2O[C@@H]1CN(C)S(=O)(=O)c1cccs1, CC[N+](C)(C)c1cccc(O)c1.[Cl-], COc1ccc(S(=O)(=O)N(C)C[C@@H]2Oc3c(NC(=O)NC(C)C)cccc3C(=O)N([C@@H](C)CO)C[C@@H]2C)cc1, C[C@@H]1CCCCO[C@@H](CN(C)Cc2ccc(C(=O)O)cc2)[C@@H](C)CN([C@H](C)CO)C(=O)c2cc(NC(=O)Nc3ccc(F)cc3)ccc2O1, COc1ccc(CN(C)C[C@@H]2Oc3ccc(NC(=O)Cn4cnnn4)cc3CC(=O)N([C@H](C)CO)C[C@H]2C)cc1, C[C@H]1CN([C@@H](C)CO)C(=O)c2cccc(NS(=O)(=O)c3ccccc3)c2O[C@@H]1CN(C)S(=O)(=O)c1cccs1, COc1ccc(NC(=O)Nc2ccc3c(c2)CC(=O)N([C@@H](C)CO)C[C@@H](C)[C@@H](CN(C)Cc2ccc(Oc4ccccc4)cc2)O3)cc1, C=CC[C@H](CC(=O)NCCO)C(=O)NC[C@H](OC(=O)[C@H](CC=C)CC(=O)OC(C)(C)C)c1ccccc1, C[C@H](CO)N1C[C@H](C)[C@H](CN(C)Cc2ccc(Cl)c(Cl)c2)Oc2c(NS(=O)(=O)c3ccccc3)cccc2C1=O, COc1cc(N2CCN(S(C)(=O)=O)CC2)nc(C)n1, C[C@@H]1CN([C@H](C)CO)C(=O)c2cccc(NC(=O)NC3CCCCC3)c2O[C@H]1CN(C)Cc1ccc(Oc2ccccc2)cc1, COc1ccc(COC[C@]23Oc4ccccc4[C@H]([C@H]2CO[Si](C)(C)C(C)(C)C)N(C(=O)CC(C)=O)C(=O)N3C)cc1, COC(=O)c1cccc(NC(=N)N=C(N)N)c1, Cn1cnc(S(=O)(=O)N2C[C@@H](O)COC[C@@H]3O[C@H](CC(=O)NCc4ccc(F)cc4)CC[C@H]32)c1, C[C@H]1CN([C@@H](C)CO)S(=O)(=O)c2ccc(-c3ccc(F)cc3)cc2O[C@H]1CN(C)S(C)(=O)=O
